# Results: the supplement of paper PMC10338343
# ± gives the standard deviation. This is a selection; strong and weak results do not stand in their true shares.
# System: MIWI (PIWIL1) piRISC loaded with piRNA #1 (30 nt)
# Experiment: pre-steady-state target cleavage rate (min^-1); MIWI and MILI are mouse PIWI proteins and EfPiwi is from a freshwater sponge; tags in brackets are library labels; higher = faster piRNA-guided slicing of the target
# Conditions: guide: piRNA #1 5'p-UGAGGUAGUAGGUUGUAUAGUAUCCAGAGG; auxiliary factor: 500 nM mouse GTSF1
# Procedure, shortened: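 In Cleave-'n-Seq, a transcribed, DNA-blocked target RNA library (0.1 nM) was combined with 1 nM active affinity-purified piRISC bearing one synthetic guide, with or without 500 nM GTSF1 partner protein. Reactions ran in HEPES–potassium acetate buffer at 33 °C for 0–8 or 0–960 min. Uncleaved targets were sequenced and normalised to depth and to weakly complementary targets, three trials were pooled, and k3 was capped at 0.0001 min^-1. The pre-steady-state cleavage rate was obtained by fitting a burst-and-steady-state model.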
row,Sequence,pre-steady-state target cleavage rate
1,GGAGACCUAAUCUAUACAACCUACUACCUCA,1.03 ± 0.081
2,GCUCUGGAUCCUAUACAACCUACUACCUCA,1.16 ± 0.11
3,GGUCUGGAGACUAUACAACCUACUACCUCA,1.9 ± 0.14
4,GCUCUGGAUACUUACAACCUACUACCUCA,1.18 ± 0.1
5,GGACUCGAUACUAUAGAACCUACUACCUCA,1.46 ± 0.098
6,GGUCUGGACUACUAUACAACCUACUACCUCA,1.63 ± 0.089
7,GGAGUGGAAACUAUACAACCUACUUCCUCA,0.00741 ± 0.0026
8,GGACUGGAUACUAUACUACCUAGUACCUCA,0.307 ± 0.071
9,GGAGACCUAACUGUACAACCUACUACCUCA,0.327 ± 0.046
10,GGAGUGGAUACUAUUCAACCUACAACCUCA,0.234 ± 0.028
11,GGUCUCGAUACUAUACAAGCUACUACCUCA,1.11 ± 0.052
12,GGAGACCAUACUAUAUCAACCUACUACCUCA,0.0917 ± 0.016
13,GGACUGGAUACUAUUCAUCCUACUACCUCA,1.19 ± 0.089
14,GGAGACCUAACUAUUCAACCUAGUACCUCA,0.154 ± 0.026
15,GGAGACCUAACUAUUACAACCUACUACCUCA,0.319 ± 0.039
16,GCUCUGCAUACUAUAGAACCUACUACCUCA,1.05 ± 0.063
17,GGAGACCAUACUAUACAUGCUACUACCUCA,0.427 ± 0.037
18,GGAGACCUAUGAUAUGAACCCACUACCUCA,< 0.0001
19,CCUCUGGAUACUAUACAACCUACUACCAUCA,1.66 ± 0.087
20,GCUCUGGAUACUAUACAACCUACUCCUCA,0.0332 ± 0.01

row,Sequence,pre-steady-state target cleavage rate
1,CCUCUGGAUACAAUACAACCUACUACGUCA,1.51 ± 0.087
2,GGAGACCUAACUAUACAACCUACUUCCACA,0.0872 ± 0.034
3,GGAGAGGAUACUAUACAACCAACUAGCUCA,0.0485 ± 0.0086
4,GCUCUGGAUACUAUACAACCUCCUACCUCA,1.2 ± 0.052
5,GGACUGGAUACUAUACAACCUUCAACCUCA,0.138 ± 0.028
6,GGAGACCUAUCUAUACAACGUACUACCUCA,0.216 ± 0.029
7,GGAGACCUAUCUAUACAACCUACUACCUCCA,0.741 ± 0.052
8,GGAGACCAUACUAUACAACCUACUACCGCA,1.56 ± 0.13
9,CCACUGGAUUCUAUACAACCUACUACCUCA,2.08 ± 0.12
10,GGAGACCAUACUAACAACCUACUACCUCA,0.502 ± 0.046
11,GGUCUCGUUACUAUACAACCUACUACCUCA,1.7 ± 0.099
12,GGACUGGAUACUAUACAACCUACUACCUA,0.543 ± 0.1
13,GGAGACCUAUCUAUACAACCUACAUCCUCA,0.0946 ± 0.011
14,GCUCUCGAUACUAUACAACGUACUACCUCA,1.18 ± 0.067
15,GGAGACCUAUGAUAUGUUGGUACUACCAGA,< 0.0001
16,GGAGACCAUUCUAUACAACCUAGUACCUCA,0.538 ± 0.052
17,GGAGUGGAUAGUAUACAACCUACUACCUCA,0.437 ± 0.03
18,GGAGACCUUACUAUACAAGCUACUACCACA,0.89 ± 0.044
19,GGAGACCAAACUAUACAACCUACUUCCUCA,0.256 ± 0.05
